# According to paper PMC9911399, “Two distinct binding modes provide the RNA-binding protein RbFox with extraordinary sequence specificity”:
# Changes are numbered by the printed parent chain; changes in the protein carry UniProt numbers. This is one part of the list.
# B1: CCGAAUC (DNA:RNA)
# RNA: GGGAGACCGGAAUUCAGAUUGUCCCCGAAUCUUAAAUCCCGUCGUAGCCACCA
# DNA 1: CAATCTGAATTCCGGTCTCCC
# DNA 2: TGGTGGCTACGACGGGATT
# B2: AGUGCUA (DNA:RNA)
# RNA: B1 RNA with C25A, C26G, G27U, A28G, A29C, C31A
# DNA 1: CAATCTGAATTCCGGTCTCCC
# DNA 2: TGGTGGCTACGACGGGATT
# B3: GGACUUU (DNA:RNA)
# RNA: B1 RNA with C25G, C26G, G27A, A28C, A29U, C31U
# DNA 1: CAATCTGAATTCCGGTCTCCC
# DNA 2: TGGTGGCTACGACGGGATT
# B4: GACACGG (DNA:RNA)
# RNA: B1 RNA with C25G, C26A, G27C, A29C, U30G, C31G
# DNA 1: CAATCTGAATTCCGGTCTCCC
# DNA 2: TGGTGGCTACGACGGGATT
# B5: AGACUUC (DNA:RNA)
# RNA: B1 RNA with C25A, C26G, G27A, A28C, A29U
# DNA 1: CAATCTGAATTCCGGTCTCCC
# DNA 2: TGGTGGCTACGACGGGATT
# B6: GUGCGGC (DNA:RNA)
# RNA: B1 RNA with C25G, C26U, A28C, A29G, U30G
# DNA 1: CAATCTGAATTCCGGTCTCCC
# DNA 2: TGGTGGCTACGACGGGATT
# B7: UCAUUUU (DNA:RNA)
# RNA: B1 RNA with C25U, G27A, A28U, A29U, C31U
# DNA 1: CAATCTGAATTCCGGTCTCCC
# DNA 2: TGGTGGCTACGACGGGATT
# B8: UCGAAGC (DNA:RNA)
# RNA: B1 RNA with C25U, U30G
# DNA 1: CAATCTGAATTCCGGTCTCCC
# DNA 2: TGGTGGCTACGACGGGATT
# B9: CCACUCC (DNA:RNA)
# RNA: B1 RNA with G27A, A28C, A29U, U30C
# DNA 1: CAATCTGAATTCCGGTCTCCC
# DNA 2: TGGTGGCTACGACGGGATT
# B10: AGCAAGA (DNA:RNA)
# RNA: B1 RNA with C25A, C26G, G27C, U30G, C31A
# DNA 1: CAATCTGAATTCCGGTCTCCC
# DNA 2: TGGTGGCTACGACGGGATT
# B11: CCUCCGU (DNA:RNA)
# RNA: B1 RNA with G27U, A28C, A29C, U30G, C31U
# DNA 1: CAATCTGAATTCCGGTCTCCC
# DNA 2: TGGTGGCTACGACGGGATT
# B12: ACCAAAU (DNA:RNA)
# RNA: B1 RNA with C25A, G27C, U30A, C31U
# DNA 1: CAATCTGAATTCCGGTCTCCC
# DNA 2: TGGTGGCTACGACGGGATT
# B13: UGCGUCA (DNA:RNA)
# RNA: GGGAGACCGGAAUUCAGAUUGUCCUGCGUCAUUAAAUCCCGUCGUAGCCACCA
# DNA 1: CAATCTGAATTCCGGTCTCCC
# DNA 2: TGGTGGCTACGACGGGATT
# B14: GAAGGCA (DNA:RNA)
# RNA: B13 RNA with U25G, G26A, C27A, U29G
# DNA 1: CAATCTGAATTCCGGTCTCCC
# DNA 2: TGGTGGCTACGACGGGATT
# B15: UUUCUGG (DNA:RNA)
# RNA: B13 RNA with G26U, C27U, G28C, C30G, A31G
# DNA 1: CAATCTGAATTCCGGTCTCCC
# DNA 2: TGGTGGCTACGACGGGATT
# B16: AGUCGAG (DNA:RNA)
# RNA: B13 RNA with U25A, C27U, G28C, U29G, C30A, A31G
# DNA 1: CAATCTGAATTCCGGTCTCCC
# DNA 2: TGGTGGCTACGACGGGATT
# B17: GGUGAUC (DNA:RNA)
# RNA: B1 RNA with C25G, C26G, G27U, A28G
# DNA 1: CAATCTGAATTCCGGTCTCCC
# DNA 2: TGGTGGCTACGACGGGATT
# B18: GGAUCGA (DNA:RNA)
# RNA: B13 RNA with U25G, C27A, G28U, U29C, C30G
# DNA 1: CAATCTGAATTCCGGTCTCCC
# DNA 2: TGGTGGCTACGACGGGATT
# B19: UCUAGGA (DNA:RNA)
# RNA: B1 RNA with C25U, G27U, A29G, U30G, C31A
# DNA 1: CAATCTGAATTCCGGTCTCCC
# DNA 2: TGGTGGCTACGACGGGATT
# B20: AGUCACG (DNA:RNA)
# RNA: B13 RNA with U25A, C27U, G28C, U29A, A31G
# DNA 1: CAATCTGAATTCCGGTCTCCC
# DNA 2: TGGTGGCTACGACGGGATT
# B21: CGUGACA (DNA:RNA)
# RNA: B13 RNA with U25C, C27U, U29A
# DNA 1: CAATCTGAATTCCGGTCTCCC
# DNA 2: TGGTGGCTACGACGGGATT
# B22: UACAGCC (DNA:RNA)
# RNA: B13 RNA with G26A, G28A, U29G, A31C
# DNA 1: CAATCTGAATTCCGGTCTCCC
# DNA 2: TGGTGGCTACGACGGGATT
# B23: GUGUACU (DNA:RNA)
# RNA: B1 RNA with C25G, C26U, A28U, U30C, C31U
# DNA 1: CAATCTGAATTCCGGTCTCCC
# DNA 2: TGGTGGCTACGACGGGATT
# B24: UCACCGA (DNA:RNA)
# RNA: B13 RNA with G26C, C27A, G28C, U29C, C30G
# DNA 1: CAATCTGAATTCCGGTCTCCC
# DNA 2: TGGTGGCTACGACGGGATT
# B25: AUUUACA (DNA:RNA)
# RNA: B13 RNA with U25A, G26U, C27U, G28U, U29A
# DNA 1: CAATCTGAATTCCGGTCTCCC
# DNA 2: TGGTGGCTACGACGGGATT
# B26: AAUGGGA (DNA:RNA)
# RNA: B13 RNA with U25A, G26A, C27U, U29G, C30G
# DNA 1: CAATCTGAATTCCGGTCTCCC
# DNA 2: TGGTGGCTACGACGGGATT
# B27: UGUCGCC (DNA:RNA)
# RNA: B13 RNA with C27U, G28C, U29G, A31C
# DNA 1: CAATCTGAATTCCGGTCTCCC
# DNA 2: TGGTGGCTACGACGGGATT
# B28: UGCGAUG (DNA:RNA)
# RNA: B13 RNA with U29A, C30U, A31G
# DNA 1: CAATCTGAATTCCGGTCTCCC
# DNA 2: TGGTGGCTACGACGGGATT
# B29: UUAUUUU (DNA:RNA)
# RNA: B13 RNA with G26U, C27A, G28U, C30U, A31U
# DNA 1: CAATCTGAATTCCGGTCTCCC
# DNA 2: TGGTGGCTACGACGGGATT
# B30: AGAAAGA (DNA:RNA)
# RNA: B1 RNA with C25A, C26G, G27A, U30G, C31A
# DNA 1: CAATCTGAATTCCGGTCTCCC
# DNA 2: TGGTGGCTACGACGGGATT
# B31: GGUGACU (DNA:RNA)
# RNA: B13 RNA with U25G, C27U, U29A, A31U
# DNA 1: CAATCTGAATTCCGGTCTCCC
# DNA 2: TGGTGGCTACGACGGGATT
# Molecular target: T1, RBFOX1 RRM (Homo sapiens, UniProt Q9NWB1 109-208)
# T1 sequence: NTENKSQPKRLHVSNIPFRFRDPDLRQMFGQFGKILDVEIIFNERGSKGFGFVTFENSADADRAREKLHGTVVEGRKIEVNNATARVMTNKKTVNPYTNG
# Test: EMSA; HiTS-Eq, 1 nM pool, 10 min; buffer printed only for the single-RNA assays: 10 mM Tris pH 7.5, 150 mM NaCl, 3.4 mM EDTA, 0.001% NP-40, 30 C
# Details: tags: His6 N-terminal (pET28a); label: 5' 32P
# Method in brief: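 Purified RbFox RRM, wild type or mutant, was incubated for 10 min in 50 µL with 1 nM of a 5′-radiolabelled RNA pool carrying 7 randomized nucleotides, whose flanks were annealed to DNA oligonucleotides, over a series of increasing protein concentrations. Unbound RNA was resolved on 8% native PAGE, cut out, reverse-transcribed, barcoded by PCR and sequenced on an Illumina HiSeq 2500. Relative association constants were derived from changes in read counts for each RNA species versus the control reaction and normalised to the cognate motif.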
row,Binder,binding signal
1,B1,0.00768 KA relative to UGCAUGU
2,B2,0.00977 KA relative to UGCAUGU
3,B3,0.0238 KA relative to UGCAUGU
4,B4,0.0123 KA relative to UGCAUGU
5,B5,0.00804 KA relative to UGCAUGU
6,B6,0.0141 KA relative to UGCAUGU
7,B7,0.00619 KA relative to UGCAUGU
8,B8,0.0119 KA relative to UGCAUGU
9,B9,0.0026 KA relative to UGCAUGU
10,B10,0.00998 KA relative to UGCAUGU
11,B11,0.00636 KA relative to UGCAUGU
12,B12,0.000529 KA relative to UGCAUGU
13,B13,0.00986 KA relative to UGCAUGU
14,B14,0.0178 KA relative to UGCAUGU
15,B15,0.0202 KA relative to UGCAUGU
16,B16,0.0129 KA relative to UGCAUGU

row,Binder,binding signal
1,B17,0.00751 KA relative to UGCAUGU
2,B18,0.0242 KA relative to UGCAUGU
3,B19,0.00501 KA relative to UGCAUGU
4,B20,0.00913 KA relative to UGCAUGU
5,B21,0.00489 KA relative to UGCAUGU
6,B22,0.00315 KA relative to UGCAUGU
7,B23,0.00866 KA relative to UGCAUGU
8,B24,0.0066 KA relative to UGCAUGU
9,B25,0.00199 KA relative to UGCAUGU
10,B26,0.00526 KA relative to UGCAUGU
11,B27,0.0149 KA relative to UGCAUGU
12,B28,0.0369 KA relative to UGCAUGU
13,B29,0.00884 KA relative to UGCAUGU
14,B30,0.00545 KA relative to UGCAUGU
15,B31,0.0137 KA relative to UGCAUGU
